Test results reported in the RNAGym collection of RNA variant scans (doi:10.7554/elife.90254).
The source gives no read counts; variants with many changes may rest on few reads.

B1: LINE1-full (parent)
chain: UACGUAGGUGGUUUUCCCCUGAUAGUGCUAAGGGGGCCUGGAAGUUUGGACUGGGCAGAGCUCAACACAGCGUGGCAAAGUGGCUGUGGCUAGACUGCCUCUCUGGAUUCCUCGUCACUCAGCAGGGCAUCUCUGAGAGAAAUGCC

Variants of: B1
Assay: self-cleavage, relative activity (ratio to wild type); higher = more cleavage; in vitro, sequencing; the parent is a self-cleaving ribozyme

| Variant | self-cleavage |
| --- | --- |
| UACGUAGGUGGUUUCCCCCUGAAAGUGCUAAGGGGGCCUGAAAGUUUGGACUGGGCAGAGCUCGACACAGCGUGGCAAAGUGGCUGUGGCUAGACUGCCUCUCUGGAUUCCUCGUCACUCAGCAGGGCAUCUCUGAGAGAAAUGCC [U15C U23A G41A A64G] | 0.3 |
| UACGUAGGUGGUUUCCCCCUGAUAGAGCUAUGGGGUCCUGGAAGUUCGGACUGGGCAGAGCUCAACACAGCGUGGCAAAGUGGCUGUGGCUAGACUGCCUCUCUGGAUUCCUCGUCACUCAGCAGGGCAUCUCUGAGAGAAAUGCC [U15C U26A A31U G36U U47C] | 0.95 |
| UACGUAGGUGGUUUCCCCCUGAUAGAGCUAAGGGGGCCUGGAAGUUCGGACUGGGCAAAGCUCAACACAGCGUGGCAAAGUGGCUGUGGCUAGACUGCCUCUCUGGAUUCCUCGUCACUCAGCAGGGCAUCUCUGAGCGAAAUGCC [U15C U26A U47C G58A A138C] | 0.06 |
| UACGUAGGUGGUUUCCCCCUGAUAGAGCUAAGGGGGCCUGGAAGUUUGGACUGGGCAGAGCUCAACACAGCGAGGCAUAGUGGCUGUGGCUAGACUGCCUCUCUGGAUUCCUCGUCACUCAGCAGGGCACCUCUGAGAGAAAUGCC [U15C U26A U73A A78U U130C] | 1.86 |
| UACGUAGGUGGUUUCCCCCUGAUAGAGCUAAGGGGGCCUGGAAGUUUGGACUGGGCAGAGCUCAACACAGCGUGGCAAAGUGGCUGUGGCUAGACUGCCUCUCUGGAUUCCUCGUCACUCAGCAGGGCAUCUCCGAGAGAAAUGCC [U15C U26A U134C] | 1.26 |
| UACGUAGGUGGUUUCCCCCUGAUAGCGCUAAGGGGGCCUGGAAGUUUGGGCUGGGCAGAGCUCAACACAGCGUGGCAAAGUGGCUGUGGCUGGACUGCCUCUCUGGAUUCCUCGUCACUCAGCAGGGCAUCUCUGAGAGAAAUGCC [U15C U26C A50G A92G] | 0 |
| UACGUAGGUGGUUUCCCCCUGAUAGCGCUAAGGGGGCCUGGAAGUUUGGACUGGGCAGAGCUCAGCACAGCGUGGCAAAGUGGCUAUGGCUAGACUGCCUCUCUGGAUUCCUCGUCACUCAGCAGGGCAUCUCUGAGAGAAAUGCC [U15C U26C A65G G86A] | 0.07 |
| UACGUAGGUGGUUUCCCCCUGAUAGCGCUAAGGGGGCCUGGAAGUUUGGACUGGGCAGAGCUCAACACAGCGUGGCAAAGUGGCUGUGGCUAGACUGCCUCUCUGGAUUCCUCGUCACUCAGCAGGGCCUCUCUGAGAGAAGUGCC [U15C U26C A129C A142G] | 1.53 |
| UACGUAGGUGGUUUCCCCCUGAUAGCGCUAAGGGGGCCUGGAAGUUUGGACUGGGCAGAGCUCAACACAGCGUGGCAAAGUGGCUGUGGCUAGACUGCCUCUCUGGAUUCCUCGUCACUCAGCAGCGCAUCUCUGAGAGAAAUGCC [U15C U26C G126C] | 1.25 |
| UACGUAGGUGGUUUCCCCCUGAUAGCGCUAAGGGGGCCUGGAAGUUUGGACUGGGCAGAGCUCAACACAGCGUGGCAAAGUGGCUGUGGCUAGACUGCCCCUCUGGAUUCCUCGUCACUCAGCAGGGCAUCUCUGAGAGAAAUGCC [U15C U26C U100C] | 2.19 |
| UACGUAGGUGGUUUCCCCCUGAUAGGGCUAAGGGGGCCUGGAAGUUUGGACUGGGCAGAGCUCAGCACAGCGUGGCAAAGUGGCUGUGGCUAGACUGCCUCUCUGGAUUCCUCGGCACUCAGCAGGGCAUCUCUGAGAGAAAUGCC [U15C U26G A65G U115G] | 0.17 |
| UACGUAGGUGGUUUCCCCCUGAUAGUGCAAAGGGGGCCUGGAAGUUUGGACUGGGCAGAGCUCAACACAGCGUGGCAAAGUGGCUGUGGCUAGACUGCCUCUCUGGACUCCUCGUCACUCAGCAGGGCAUCUCUGAGAGAAAUGCC [U15C U29A U108C] | 0.92 |
| UACGUAGGUGGUUUCCCCCUGAUAGUGCAAAGGGGGCCUGGAAGUUUGGACUGGGCAGAGCUCAACACAGCGUGGCAAAGUGGCUGUGGCUAGACUGCCUCUCUGGAUUCCUCGUCACUCAGCAGGGCAACUCAGAGAGAAAUGCC [U15C U29A U130A U134A] | 0.58 |
| UACGUAGGUGGUUUCCCCCUGAUAGUGCCAAGGGGGCCUGGAAGUUUGGACUGGGCAGAGCUCCACACAGCGCGGCAAAGUGGCUGUGGCUAGACUGCCUCUCUGGAUUCCUCGUCACUCAGCAGGGCAUCUCUGAGAGAAAUGCC [U15C U29C A64C U73C] | 0 |
| UACGUAGGUGGUUUCCCCCUGAUAGUGCCAAGGGGGCCUGGAAGUUUGGACUGGGCAGAGCUUAACUCAGCGUGGCAAAGUGGCUGUGGCUAGACUGCCUCUCUGGAUUCCUCGUCACUCAGCAGGGCGUCUCUGAGAGAAAUGCC [U15C U29C C63U A67U A129G] | 0.1 |
| UACGUAGGUGGUUUCCCCCUGAUAGUGCUAAGGGGGCCAGGAGGUUUGGACUGGGCAGAGCUCAACACAGCGUGGCAAAGUGGCUGUGGCUAGACUGCCUCUCUGGAUUCCUCGUCACUCCGCAGGGCAUCUCUGAGAGAAACGCC [U15C U39A A43G A121C U143C] | 0.16 |
| UACGUAGGUGGUUUCCCCCUGAUAGUGCUAAGGGGGCCAGGAAGUUUGGACUGGGCAGAGCUCAACACAGCGCGGCAAAGUGGCUGUGGCUAGACUGCCUCUCUGGAUUCCUCGUCUCUCAGCAGGGCAUCUCUGAGAGAAAUGCC [U15C U39A U73C A117U] | 1.15 |
| UACGUAGGUGGUUUCCCCCUGAUAGUGCUAAGGGGGCCAGGAAGUUUGGACUGGGCAGAGCUCAACACAGCGUGGCAAAGUGGCUGUGGCUAGACUGCCUCUCUGGAUUCCUCGUCACUCAGCAGGGCAUCCCUGAGAGAAAUGCC [U15C U39A U132C] | 1.57 |
| UACGUAGGUGGUUUCCCCCUGAUAGUGCUAAGGGGGCCCGGAAGUUUGGACUGGGCAGAGCUCAACACGGCGUGGCAAAGUGGCUGUGGCUAGACUGCCUCUCUGGAUUCCUCGUCACUCAGCAGGGCAUCUCUGAGAGAAAUGCC [U15C U39C A69G] | 1.31 |
| UACGUAGGUGGUUUCCCCCUGAUAGUGCUAAGGGGGCCCGGAAGUUUGGACUGGGCAGAGCUCAACACUGCGUGGCAAAGUGGCUGUGGCUAGACUGCCUCUCUGGAUUCCUCGUCACUCAGCAGGGCAUCUCUGAGAGAUACGCC [U15C U39C A69U A141U U143C] | 0.13 |

| Variant | self-cleavage |
| --- | --- |
| UACGUAGGUGGUUUCCCCCUGAUAGUGCUAAGGGGGCCUGGAAGAUUGGACUGGGCAGAGCUCAACACAGCGUGGCAAGGUGGCUGUGGCUAGACUGCCUCUCUGGAUUCCUCGUCACUCAGCAGGGCAUCUCUGAGGGAAAUGCC [U15C U45A A79G A138G] | 0.75 |
| UACGUAGGUGGUUUCCCCCUGAUAGUGCUAAGGGGGCCUGGAAGAUUGGACUGGGCAGAGCUCAACACAGCGUGGCAAAGUGGCUGUGGCUAGACUGCCUCUCUGGAUUCCUCGACACUCAGCAGGGCAUCUCUGAGAGAAAUGCC [U15C U45A U115A] | 0.98 |
| UACGUAGGUGGUUUCCCCCUGAUAGUGCUAAGGGGGCCUGGAAGCUUGGACUGGGCAGAGCUCAACACAGCGUGGCAAAGUGGCUGUGGCUAGACAGCCUCUCUGGAUUCCUCGUCACUCAGCAGGGCAUCUCUGAGAGAAAUGCC [U15C U45C U96A] | 0.11 |
| UACGUAGGUGGUUUCCCCCUGAUAGUGCUAAGGGGGCCUGGAAGGCUGGACUGGGCAGAGCUCAACACAGCGUGGCAAAGUGGCUGUGGCUAGACUGCCUCUCUGGAUUCCUCGUCACUCAGCAGGGCAUCUCUGAGAGAGAUGCC [U15C U45G U46C A141G] | 1.15 |
| UACGUAGGUGGUUUCCCCCUGAUAGUGCUAAGGGGGCCUGGAAGGUUGGACUGGGCAGAGCUCAACACAGCGUGGCAAAGUGGCUGUGGCUAGACUGCCUCUCUGGAUUCCUCGUCACUCAGCAGGGCAUCUCUGAGAGAAACGCC [U15C U45G U143C] | 1.57 |
| UACGUAGGUGGUUUCCCCCUGAUAGUGCUAAGGGGGCCUGGAAGUAUGGACUGGGCAGAGCUCAGCACAGCGUAGCAAAGUGGCUGUGGCUAGACCGCCUCUCUGGAUUCCUCGUCACUCAGCAGGGCACCUCUGAGAGAAAUGCC [U15C U46A A65G G74A U96C U130C] | 0.06 |
| UACGUAGGUGGUUUCCCCCUGAUAGUGCUAAGGGGGCCUGGAAGUAUGGACUGGGCAGAGCUCAACACAGCGUGGCAAAGUGGCUGUGGCUAGACUGCCUCUCUGGAUUCCUCGUCACUCAGCAGGGCAUCCCUGAGAGAAAUGCC [U15C U46A U132C] | 0.98 |
| UACGUAGGUGGUUUCCCCCUGAUAGUGCUAAGGGGGCCUGGAAGUCUGGACUGGGCAGAGCUCAACACAGCGUGGCAAGGUGGCUGUGGCUAGACUGCCUCUCUGGAUUCCUCGUCACUCAGCAGGGCAUCUCUGAGAGAAAUGCC [U15C U46C A79G] | 2.45 |
| UACGUAGGUGGUUUCCCCCUGAUAGUGCUAAGGGGGCCUGGAAGUCUGGACUGAGCGGAGCUCAACACAGCGUGGCAAAGUGGCUGUGGCUAGACUGCCUCUCAGGAUUCCUCGUCACUCAGCAGGGCAUCUCUGAGAGUAAUGCC [U15C U46C G54A A57G U104A A140U] | 0.11 |
| UACGUAGGUGGUUUCCCCCUGAUAGUGCUAAGGGGGCCUGGAAGUCUGGACAGGGCAGAGCUCAACACAGCGUGGCAAAGUGGCUGUGGCUAGACUGCCUCUCUGGAUUCCUCGUCACUCAGCAGGGCAUCUCUGAGAGAAAUGCC [U15C U46C U52A] | 1.22 |
| UACGUAGGUGGUUUCCCCCUGAUAGUGCUAAGGGGGCCUGGAAGUCUGGACUGGGCAGAGCACAACACAGCGUGGCAAAGUGGCUGUGGCUAGCCUGCCUCUCUGGAUUCCUCGUCACUCAGCAGGGCAUCUCUGAGAGAAAUGCC [U15C U46C U62A A94C] | 0.12 |
| UACGUAGGUGGUUUCCCCCUGAUAGUGCUAAGGGGGCCUGGAAGUCUGGACUGGGCAGAGCUCAACACAGCGUGGCAAAGUGGCUGUGGCCAGACUGCCUCUCUGGGUUCCUCGUCACUCAGCAGGGCAUCUCUAAGAGAGAUGCC [U15C U46C U91C A107G G135A A141G] | 2.42 |
| UACGUAGGUGGUUUCCCCCUGAUAGUGCUAAGGGGGCCUGGAAGUGUGGACUGGGCAGAGCUCAACACAGCGUGGCAAAGUGGCUGUGGCUAGACUGCCUCUCUGGAUCCCCCGUCACUCAGCAGGGCAUCUCUGAGAGAAAUGCC [U15C U46G U109C U112C] | 1.98 |
| UACGUAGGUGGUUUCCCCCUGAUAGUGCUAAGGGGGCCUGGAAGUUAGGUCUGGGCAGAGCUCAACACAGCGUGGCAAAGUGGCUGUGGCUAGACUGCCUCUCUGGAUUCCUUGUCACUCAGCAGGGCAUCUCUGAGAGAAAUGCC [U15C U47A A50U C113U] | 0.77 |
| UACGUAGGUGGUUUCCCCCUGAUAGUGCUAAGGGGGCCUGGAAGUUAGGACUGGGCAGAGCUCGACACAGCGUGGCAAAGUGGCUGUGGCUAGACUGCCUCUCUGGAUUCCUCGUCACUCAGCAGGGCAUCUCUGAGAGAAAUGCC [U15C U47A A64G] | 0.09 |
| UACGUAGGUGGUUUCCCCCUGAUAGUGCUAAGGGGGCCUGGAAGUUAGGACUGGGCAGAGCUCAACACAGCGUGGCAAAGUGGCUGUGGCUAGACUGCCUCUCUGGAUUCCUCGUCACUCAGCAGGGCAUCUCUGAGAGAACUGCC [U15C U47A A142C] | 1.51 |
| UACGUAGGUGGUUUCCCCCUGAUAGUGCUAAGGGGGCCUGGAAGUUAGGACUGGGCAGAGCUCAACACAGCGUGGCAAAGUGGCUGUGGCUAGACUGCCUCUCUGGAUUCCCCGUCACUCAGCAGGGCAUCUCUGAGAGAAAUGCC [U15C U47A U112C] | 0.94 |
| UACGUAGGUGGUUUCCCCCUGAUAGUGCUAAGGGGGCCUGGAAGUUCGGACUUGGCAGAGCUCAGCACAGCGUGGCAAAGUGGCUGUGGCUAGACUGCCACUCUGGAUUCCUCGUCACUCAGCAGGGCAUCUCUGAGAGAAAUGCC [U15C U47C G53U A65G U100A] | 0.08 |
| UACGUAGGUGGUUUCCCCCUGAUAGUGCUAAGGGGGCCUGGAAGUUCGGACUGGGCAGAGCUCAACACAGCGUGGCAAAGUGGCUGUGGCUAGACUGCCUCUCUGUAUUCCUCGUCACUCAGCAGGGCAUCUCUGAGAGGAAUGCC [U15C U47C G106U A140G] | 1.18 |
